According to the supplement of paper PMC10126150:
Sequences with one replicate were seen in a single cluster, so their values are uncertain.

Tested on: ATP
Test: switch fluorescence ratio, 500 uM ATP over buffer (Cy3 cluster intensity, sum of 5 cycles each) (fold (ratio)); higher = stronger signal-on switching upon ATP binding; sequences stand for … in TCGTCGGCAGCGTCAGATGTGTATAAGAGACAGTTTTTTTTTTTTTTTTTTTTTTTTT…TC
Conditions: aptamer strand: ATP DNA aptamer (quencher-CACCTGGGGGAGTATTGCGGAGGAAGG + anchor), 100 nM annealed; ATP concentration: 500 uM; one replicate
Outline: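 Between each of five buffer/ATP cycles, the flow-cell was stripped with NaOH and re-annealed. Each cycle imaged Cy3-labelled switching-strand clusters, annealed to 100 nM quencher-labelled ATP aptamer on a modified Illumina MiSeq flow-cell, first in selection buffer and then after 15 min with 500 uM ATP at 22 °C. The fluorescence ratio is summed target-cycle over summed buffer-cycle Cy3 intensity per cluster, averaged per switch-domain sequence, with clusters outside 100-1000 RFU excluded.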
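Also: ATP exposure 15 min at 22 °C before imaging.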

Sequence | switch fluorescence ratio
AATTTACCGT | 1.03
TTGGCTGGCG | 0.981
AGTTCATTAC | 1.05
GTGGTATAGT | 0.952
TTGAACTTCG | 0.995
GCAATTAGA | 0.97
GGACGAGCGG | 0.963
TGCGCAGGGG | 1.03
AACGGGATC | 1.27
TTTTTCTTGG | 1
GCACTCGCCT | 0.988
TTAACTATAG | 1
GCTGGAGTTC | 0.981
TCGGATGTT | 1
TACCCACCGA | 1.34
TCAGCTAGGT | 0.972
GCAGGTGATT | 0.978
TGGTTACGAG | 1
AATTTGTGCT | 0.98
TGCATGTGCT | 1
TTTAGGTGTC | 1.04
TCAATTAAC | 1.11
ATTGACGCAT | 1.34
CGACGCCTGT | 1.75
CGCCGGTGTC | 1.03
TGCTCTCAAT | 1.37

Sequence | switch fluorescence ratio
AAGGGATTC | 0.963
ATGGATGCGA | 0.98
TCGAGAAG | 0.987
CCCAGTGACG | 1.11
AGGCTTAGTA | 1.04
CGGTCTGCTG | 0.933
CGGTGACCCG | 1.7
AGGGCCAAAG | 1
CAAAGCTAGT | 1.03
TTCCCCAATG | 1.15
AAATGCGACG | 1.02
ACATGAGTTG | 1.07
ATTGTTCCAA | 0.965
CTCGCTCGGG | 1.25
TAAGAGTTTA | 0.985
GCCCACCGTA | 1.03
TCCCCGTAT | 0.999
GAAATCCTTC | 1.39
TCAATCTTGC | 1.06
AAGGTGCCTA | 1.01
TTTGTAGTAC | 3.36
CGCCCGCCAG | 1.02
ACGTATTGGG | 1.12
ACTCGCTGTT | 1.03
GTGTAGTTTG | 1
AACGGGCGTG | 1.02

Sequence | switch fluorescence ratio
CCCCCCCCGA | 1.1
AGTTGAGTGG | 0.926
CGACCTATAC | 2.89
CTAGTAGCTG | 0.962
TTCGTACGCG | 0.954
CTTTAAGTAA | 1.03
AACATCCTGC | 1.05
CCGGGTACAA | 1.79
TGTCTTATTG | 0.971
CTCAGTAGGA | 1.01
CTGGAATAT | 1.11
CACGGTAGCT | 1.11
ATAACGCTGG | 0.97
ACTAGGGCG | 1.04
CGGGAACTTC | 1.01
TTTTCCGAGC | 1.22
GCGACCCTGT | 1.07
ACATACGAAA | 1.43
TATCCCTGT | 1
CAGTACCTAT | 1.06
CCTTTTCTTC | 0.964
ATTATGTTCG | 0.95
GCGATTTGCG | 0.988
AATGTTCAAG | 0.974
CCTACTGACC | 1.39
AGCAAATCTC | 2.92

Sequence | switch fluorescence ratio
TCGCAAAGCA | 1.06
TCTCGGTTCC | 1.03
GCCTTCAGGT | 0.951
CGTCAGTGAA | 1.03
CTATAAACAG | 1.01
GGCACAAGGA | 1
TACGTTTTGG | 0.998
TTTTTCTGCC | 0.97
CATAACTATC | 0.99
CCACCTGGCT | 1.11
GGATAAGATA | 0.961
ATGTAGAGGA | 0.987
AGCCGCGACG | 1.01
CAGGACGGCC | 1
ATGGACCGC | 1.11
GCGTTTGTGT | 0.958
TATGGTTGCG | 1
AAGATATGGG | 1.01
AACCAGCATG | 1.05
AACGAAGAGC | 0.986
TACTCACACG | 1.3
GTTGTTAATG | 0.981
ACTTTGTTAA | 0.952
CTTATGCCAG | 1.02
ATCAGCCACA | 0.979
TGTTATTTTC | 0.975

Sequence | switch fluorescence ratio
TTAAATCATG | 0.952
GGGTGAGAAT | 1.06
TCGCGAGGCT | 1.31
AAACTATAAG | 1.01
GCGTACGTTT | 0.984
GTTAGAAATC | 0.976
CCTGTCTTGG | 0.97
GATAATAA | 1
GACGCGCCAG | 0.994
TCGTAAGGAT | 1.02
GCGTGCGGAC | 1.04
CTCGCTTTGG | 1.06
TCAACGAGGG | 0.964
GAAAGTTCTT | 1.03
TCAGCTAGGG | 1.07
CATGTGGTG | 0.966
TGACCTAGCT | 1.05
TTGTTTGCG | 1.01
AAGACGTTGT | 1
CCGGTAAAAG | 1.03
ACTAGAAGGA | 1.07
TAAGGACGG | 0.965
TGGTGGCAGT | 1.01
CAAGGTTCAA | 1.02
CAAAATAGTC | 1.07
CTAGAACTTG | 0.997

Sequence | switch fluorescence ratio
GTGGTTGTAA | 0.975
TCACTTGCG | 0.966
CGTTTTAACC | 0.984
TTGTCTCGGG | 1.02
CGGAGGTTAT | 1.03
TCACCGGGGC | 1.13
CGTATCGTCC | 0.968
ATTGTCCAAT | 0.951
TACGAGTGGG | 0.998
GCCTGAGGCT | 0.977
GGCCTGGTAT | 1
CCGGGGAAAA | 1.3
TTCCTTACT | 1.16
GCAACTAGCT | 0.995
CCCTCGTGAC | 1.62
CATTCTGTTG | 1.02
AGCTTTAGCA | 1.01
TCTCGAGAC | 1.06
CAGGCAGGTT | 1.03
GATAAGAGAT | 1
CTTTTCCAA | 1.15
GGTTTCTCTG | 1.01
TCGGTAGTAT | 0.979
TAGGGGATTA | 0.959
GATGGGAGCA | 0.966
AAGATTAAGT | 0.979

Sequence | switch fluorescence ratio
GTTTATGCT | 1.03
CCGAGGGAGT | 1.6
CAGTAGCAGG | 1.36
GTAAAAGTAG | 0.944
TCGTGGTTAA | 0.946
AAATTCGGT | 0.984
ATGAAAGAAA | 0.973
AAATCGAATT | 1.01
ATGGCCACCG | 0.999
CGTTTTATTA | 0.951
GCTAATTAAG | 0.98
CCCTCTATAA | 1.12
GAATGGGAAG | 0.993
CAAGCAATAA | 2.55
TAAGTACATA | 1.23
CATCCCTTTA | 1.01
AATAGCATAG | 1.02
TTGGGCTGAC | 1.32
ATTCTAAGGT | 0.991
CTGTACGTGC | 1.08
AGTCTGATT | 0.983
AGATGGAATG | 0.988
CATCCTCATG | 1.22
AAGCACTCAA | 1.2
TGTTACCCCA | 1.13
TTAAGAAATC | 1.06

Sequence | switch fluorescence ratio
GGCGAGGATA | 1.03
CGCAAGATGA | 2.48
TACAGCGCTT | 0.982
CTGCAGCAGT | 4.24
GCGCGAGGCA | 1.06
TTACGTACGG | 1.62
TCGTAGTCGC | 0.986
GTGGCGGTCG | 0.947
CCCTTTGAAT | 0.97
CTAACGAGGC | 1.22
TGGTGTGAT | 1.03
CCGTCGCGTT | 1.63
TTTTTTACAC | 1.05
TCATTCCGAG | 1.74
ATTACAATCA | 1.03
CCTTTCAGGT | 0.96
CGACGTTTTA | 1.17
GCTTACAGC | 0.992
GGCTTCAGTG | 1.01
